The list shows a part of the results.

In this experiment the test system is T1, Caupolican (Caup) homeodomain DNA-binding domain.
T1 sequence: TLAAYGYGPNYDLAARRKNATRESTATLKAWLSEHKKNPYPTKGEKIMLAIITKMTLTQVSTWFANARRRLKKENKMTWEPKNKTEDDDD
The experiment can be described thus: PBM E-score (8-mer, recovered from the published 9-mer minima) (E-score (dimensionless, -0.5 to 0.5)); Drosophila protein; higher = stronger relative binding preference, active = 0.31 or more. In a few lines: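 Caup's homeodomain DNA-binding domain (residues 214-303) was made by in vitro transcription and translation and applied at 100 nM to custom-designed protein binding microarrays. Each value is an enrichment score that gives relative binding preference for a short DNA word, with higher meaning stronger. The 8-mer values were recovered from published 9-mer scores, each of which was the minimum of its two constituent 8-mer scores. A cutoff of 0.31 marks candidate sites.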
Regarding CCTCTATC, the “PBM E-score” value is inactive: -0.0252.

As for AAGCGGTA, the “PBM E-score” value was inactive: 0.021.

In the case of ACGCGAGG, the “PBM E-score” value was inactive: -0.0393.

Consider AAGATAAA, for which the “PBM E-score” value was inactive: 0.145.

As to AGTGTCAT, the “PBM E-score” value is inactive: 0.246.

On to TCTCCCAA, for which the “PBM E-score” value is inactive: -0.111.

With ATGTTTAG, the “PBM E-score” value was inactive: 0.284.

As for AGGATTTA, the “PBM E-score” value was inactive: 0.0456.

With CAGCGTGA, the “PBM E-score” value was inactive: -0.0005.

Take AGGACCGA: the “PBM E-score” value is inactive: -0.117.

As to GCTTCACC, the “PBM E-score” value was inactive: -0.177.

Regarding CTCATCAG, the “PBM E-score” value is inactive: 0.0649.

Regarding ACATTCCC, the “PBM E-score” value is inactive: 0.112.

With GACGAAAC, the “PBM E-score” value is inactive: -0.026.

Take TATTCAAA: the “PBM E-score” value was inactive: 0.134.

ATACCCAC: the “PBM E-score” value was inactive: 0.00559.

Take ATTCGACG: the “PBM E-score” value was inactive: -0.023.

With AGTGTGGA, the “PBM E-score” value was inactive: 0.0098.

Turning to GGTGCGCA, the “PBM E-score” value was inactive: -0.176.

In the case of ACTATGGC, the “PBM E-score” value was inactive: 0.0196.

AGGTTTGC: the “PBM E-score” value is inactive: -0.0341.

Regarding AGTCGACT, the “PBM E-score” value was at least 0.0996.

Turning to ACTTGGAG, the “PBM E-score” value was inactive: 0.0132.

In the case of GCGCGCGA, the “PBM E-score” value was inactive: -0.113.

In the case of ACAGATGT, the “PBM E-score” value was at least 0.253.

These data come from the supplement of paper PMC3724861.
